According to publication PMC5671938, “Multimerin-2 is a ligand for group 14 family C-type lectins CLEC14A, CD93 and CD248 spanning the endothelial pericyte interface” (Oncogene, 2017):
Results are given in words; binding and its absence hold for the method and conditions named. Some binding calls cover weakened binding; strength is not graded here. For part of these data: Sequences can lack the tags named with a protein. Each block holds one molecule with its values, some of them ahead of it.

By UniProt entry, the sequences of proteins in these tests, tags left out. Where a name states a change or a piece, a line headed by the entry shows the natural chain unless it says otherwise. Chains listed by the source or under a name are the forms on record and can include a tag or linker. Residues count along the entry.
CD93 with C-terminal green fluorescent protein tag (CD93-GFP) (Q9NPY3, residues 22-652): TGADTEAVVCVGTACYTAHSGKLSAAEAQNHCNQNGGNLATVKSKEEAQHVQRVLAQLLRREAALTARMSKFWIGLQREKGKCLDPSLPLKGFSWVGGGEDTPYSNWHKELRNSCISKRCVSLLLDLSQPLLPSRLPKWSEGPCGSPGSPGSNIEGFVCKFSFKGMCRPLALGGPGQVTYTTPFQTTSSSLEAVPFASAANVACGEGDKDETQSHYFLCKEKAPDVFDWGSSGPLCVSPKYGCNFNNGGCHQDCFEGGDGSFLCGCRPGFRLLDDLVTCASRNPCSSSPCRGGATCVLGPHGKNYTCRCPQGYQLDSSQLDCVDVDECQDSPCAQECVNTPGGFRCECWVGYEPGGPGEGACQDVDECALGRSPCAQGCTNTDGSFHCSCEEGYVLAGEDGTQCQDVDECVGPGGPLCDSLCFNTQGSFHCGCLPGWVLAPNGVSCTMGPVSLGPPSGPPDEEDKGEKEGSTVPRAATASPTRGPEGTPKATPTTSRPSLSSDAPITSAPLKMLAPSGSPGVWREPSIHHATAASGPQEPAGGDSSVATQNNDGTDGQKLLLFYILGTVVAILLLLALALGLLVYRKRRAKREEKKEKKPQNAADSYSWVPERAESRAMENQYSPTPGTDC
CD93^C104S (Q9NPY3, form named): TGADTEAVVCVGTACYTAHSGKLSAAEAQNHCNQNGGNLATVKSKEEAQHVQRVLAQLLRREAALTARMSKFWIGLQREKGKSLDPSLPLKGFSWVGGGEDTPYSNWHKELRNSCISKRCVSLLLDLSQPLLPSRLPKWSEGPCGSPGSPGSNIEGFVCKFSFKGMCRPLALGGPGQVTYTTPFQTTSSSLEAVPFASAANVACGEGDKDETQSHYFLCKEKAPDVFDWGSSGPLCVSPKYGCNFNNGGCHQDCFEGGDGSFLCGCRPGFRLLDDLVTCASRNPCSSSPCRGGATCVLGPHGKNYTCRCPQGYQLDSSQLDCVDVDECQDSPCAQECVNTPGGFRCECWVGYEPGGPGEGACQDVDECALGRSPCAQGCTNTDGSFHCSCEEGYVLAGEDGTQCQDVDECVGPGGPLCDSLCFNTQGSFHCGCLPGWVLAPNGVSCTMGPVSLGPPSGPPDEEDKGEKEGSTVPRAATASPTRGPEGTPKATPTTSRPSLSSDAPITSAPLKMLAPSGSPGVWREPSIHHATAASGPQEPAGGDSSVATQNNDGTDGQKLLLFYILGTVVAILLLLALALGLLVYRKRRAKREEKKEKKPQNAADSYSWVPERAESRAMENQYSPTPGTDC
CD93^C136S (Q9NPY3, form named): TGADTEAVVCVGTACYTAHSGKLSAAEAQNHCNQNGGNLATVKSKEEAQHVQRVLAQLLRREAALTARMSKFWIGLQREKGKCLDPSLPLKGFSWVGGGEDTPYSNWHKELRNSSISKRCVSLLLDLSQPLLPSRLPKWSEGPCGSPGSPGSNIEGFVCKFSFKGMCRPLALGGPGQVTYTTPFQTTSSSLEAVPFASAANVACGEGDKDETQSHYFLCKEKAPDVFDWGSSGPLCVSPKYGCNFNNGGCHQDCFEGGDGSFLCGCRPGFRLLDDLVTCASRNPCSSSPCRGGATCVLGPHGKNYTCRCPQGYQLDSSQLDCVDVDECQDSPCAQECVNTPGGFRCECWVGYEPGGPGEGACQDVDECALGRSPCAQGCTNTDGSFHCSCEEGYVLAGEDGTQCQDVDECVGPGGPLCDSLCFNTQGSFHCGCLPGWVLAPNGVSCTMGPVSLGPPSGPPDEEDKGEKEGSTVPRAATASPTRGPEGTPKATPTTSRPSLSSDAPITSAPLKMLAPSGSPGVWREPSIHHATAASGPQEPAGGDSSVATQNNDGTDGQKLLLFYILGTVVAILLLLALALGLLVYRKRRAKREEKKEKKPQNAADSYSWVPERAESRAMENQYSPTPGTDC
CLEC14A with C-terminal green fluorescent protein tag (CLEC14A-GFP) (Q86T13, residues 22-490): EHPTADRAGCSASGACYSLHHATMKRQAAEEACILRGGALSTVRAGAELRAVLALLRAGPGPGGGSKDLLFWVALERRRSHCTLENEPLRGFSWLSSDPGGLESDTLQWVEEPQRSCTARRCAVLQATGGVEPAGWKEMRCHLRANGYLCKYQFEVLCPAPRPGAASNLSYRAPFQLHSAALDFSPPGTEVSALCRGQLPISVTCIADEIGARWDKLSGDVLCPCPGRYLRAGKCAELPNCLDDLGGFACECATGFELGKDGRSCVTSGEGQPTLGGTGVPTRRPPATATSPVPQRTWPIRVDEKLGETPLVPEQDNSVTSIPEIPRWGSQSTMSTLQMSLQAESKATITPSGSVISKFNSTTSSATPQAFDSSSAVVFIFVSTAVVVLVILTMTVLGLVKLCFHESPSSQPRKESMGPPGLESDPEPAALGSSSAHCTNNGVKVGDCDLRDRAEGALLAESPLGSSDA
CLEC14A^C103S (Q86T13, form named): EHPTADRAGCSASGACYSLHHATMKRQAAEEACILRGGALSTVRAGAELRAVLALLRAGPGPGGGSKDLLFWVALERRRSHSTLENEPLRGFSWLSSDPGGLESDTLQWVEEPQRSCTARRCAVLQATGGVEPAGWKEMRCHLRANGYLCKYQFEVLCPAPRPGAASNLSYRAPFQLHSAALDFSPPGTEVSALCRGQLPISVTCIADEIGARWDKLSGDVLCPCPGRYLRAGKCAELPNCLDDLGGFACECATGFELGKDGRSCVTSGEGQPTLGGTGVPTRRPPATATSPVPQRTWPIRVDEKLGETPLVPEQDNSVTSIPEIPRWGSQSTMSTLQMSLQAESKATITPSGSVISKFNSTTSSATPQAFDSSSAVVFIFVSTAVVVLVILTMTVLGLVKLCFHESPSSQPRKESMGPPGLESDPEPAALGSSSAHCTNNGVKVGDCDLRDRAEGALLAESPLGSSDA
CLEC14A^C138S (Q86T13, form named): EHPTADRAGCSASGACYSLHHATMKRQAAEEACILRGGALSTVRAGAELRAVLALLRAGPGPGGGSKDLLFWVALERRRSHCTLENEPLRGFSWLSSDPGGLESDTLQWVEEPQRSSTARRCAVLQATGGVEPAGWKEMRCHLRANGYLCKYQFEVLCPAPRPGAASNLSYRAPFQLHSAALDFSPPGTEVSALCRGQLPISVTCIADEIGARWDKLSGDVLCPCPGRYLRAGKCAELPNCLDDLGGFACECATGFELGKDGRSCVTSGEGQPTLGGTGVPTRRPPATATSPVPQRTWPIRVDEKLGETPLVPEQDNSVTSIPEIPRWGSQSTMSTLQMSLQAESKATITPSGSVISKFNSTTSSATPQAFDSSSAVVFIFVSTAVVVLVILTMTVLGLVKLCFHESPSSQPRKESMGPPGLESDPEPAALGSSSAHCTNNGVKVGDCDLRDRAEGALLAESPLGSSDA
UniProt P07204, residues 19-575: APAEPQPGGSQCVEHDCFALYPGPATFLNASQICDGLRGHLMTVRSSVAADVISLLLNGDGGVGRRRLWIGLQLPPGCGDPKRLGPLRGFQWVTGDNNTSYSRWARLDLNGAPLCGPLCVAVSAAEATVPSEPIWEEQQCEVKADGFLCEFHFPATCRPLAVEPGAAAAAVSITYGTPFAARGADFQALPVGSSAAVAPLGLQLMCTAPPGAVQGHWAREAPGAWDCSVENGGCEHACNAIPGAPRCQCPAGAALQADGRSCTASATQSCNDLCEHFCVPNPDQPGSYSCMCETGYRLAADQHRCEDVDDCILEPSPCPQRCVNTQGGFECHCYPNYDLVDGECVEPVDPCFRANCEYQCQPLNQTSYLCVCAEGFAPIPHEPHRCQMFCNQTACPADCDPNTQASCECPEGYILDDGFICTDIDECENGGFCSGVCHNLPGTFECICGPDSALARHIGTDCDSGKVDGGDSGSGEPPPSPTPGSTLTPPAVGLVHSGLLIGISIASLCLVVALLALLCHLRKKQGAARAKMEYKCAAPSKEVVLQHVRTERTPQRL
UniProt Q8VCP9, residues 22-386: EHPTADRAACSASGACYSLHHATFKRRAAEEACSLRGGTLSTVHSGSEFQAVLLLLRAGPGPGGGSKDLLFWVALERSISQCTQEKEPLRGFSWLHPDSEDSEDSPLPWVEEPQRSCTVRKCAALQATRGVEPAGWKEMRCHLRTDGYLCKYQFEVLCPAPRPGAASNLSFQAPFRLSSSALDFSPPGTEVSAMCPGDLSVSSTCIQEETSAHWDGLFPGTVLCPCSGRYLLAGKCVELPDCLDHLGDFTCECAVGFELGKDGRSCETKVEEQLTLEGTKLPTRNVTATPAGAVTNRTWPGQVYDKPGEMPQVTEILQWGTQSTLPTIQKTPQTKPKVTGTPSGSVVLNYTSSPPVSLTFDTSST

Assays:
[1] = target: T1, mouse MMRN2^495-678 (mouse) (UniProt A6H6E2); test: far-Western; mouse MMRN2 (495-678) expressed in HEK293T, probed with mouse CLEC14A-ECD-Fc (Supplementary Figure S4)
T1 sequence: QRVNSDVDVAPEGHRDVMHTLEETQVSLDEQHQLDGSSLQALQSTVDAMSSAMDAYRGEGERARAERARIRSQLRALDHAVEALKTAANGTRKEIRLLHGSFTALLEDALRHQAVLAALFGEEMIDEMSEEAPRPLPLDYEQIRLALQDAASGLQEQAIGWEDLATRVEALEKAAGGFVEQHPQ

[2] = target: CD93 with C-terminal green fluorescent protein tag (CD93-GFP) (UniProt Q9NPY3); test: flow cytometry on cells; transfected HEK293T (5 x 10^5) stained with biotinylated MMRN2^495-674 (20 μg/ml), detected with streptavidin-PE; GFP+ cells gated; only the binder purified
CD93^C104S = CD93^C104S (UniProt Q9NPY3); test: as above
CD93^C136S = CD93^C136S (UniProt Q9NPY3); test: as above
[3] = target: CLEC14A with C-terminal green fluorescent protein tag (CLEC14A-GFP) (human) (UniProt Q86T13); test: as above
CLEC14A^C103S (human) = CLEC14A^C103S (human) (UniProt Q86T13); test: as above
CLEC14A^C138S (human) = CLEC14A^C138S (human) (UniProt Q86T13); test: as above
[4] = target: thrombomodulin with C-terminal green fluorescent protein tag (UniProt P07204); test: as above
MMRN2^133-486 (human) = target: T2, MMRN2^133-486 (human) (UniProt Q9H8L6); test: far-Western; lysates of HEK293T transfected with MMRN2 truncation mutants under reducing conditions; probed with mCD248-ECD-Fc (2 μg/ml); only the binder purified
T2 sequence: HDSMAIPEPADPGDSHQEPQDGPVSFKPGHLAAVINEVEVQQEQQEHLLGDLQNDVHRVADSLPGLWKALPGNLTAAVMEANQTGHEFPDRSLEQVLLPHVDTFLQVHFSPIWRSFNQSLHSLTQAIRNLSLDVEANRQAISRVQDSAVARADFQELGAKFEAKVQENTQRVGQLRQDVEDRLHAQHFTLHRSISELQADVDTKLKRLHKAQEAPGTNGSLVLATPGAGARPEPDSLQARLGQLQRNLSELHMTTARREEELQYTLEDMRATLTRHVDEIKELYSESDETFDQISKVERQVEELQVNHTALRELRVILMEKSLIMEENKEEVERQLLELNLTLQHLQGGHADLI

- binding [1]: binds
Molecule: mouse CLEC14A-ECD-Fc (from UniProt Q8VCP9 22-386) (Fc fusion)

- binding [2]: binds
- binding (CD93^C104S): no binding (tested: 20 μg/ml)
- binding (CD93^C136S): no binding (tested: 20 μg/ml)
- binding [3]: binds
- binding (CLEC14A^C103S (human)): no binding (tested: 20 μg/ml)
- binding (CLEC14A^C138S (human)): no binding (tested: 20 μg/ml)
- binding [4]: no binding (tested: 20 μg/ml)
B1: biotinylated MMRN2^495-674 with BirA tag, from E. coli (domain or fragment, UniProt Q9H8L6 495-674)
chain: QKLYLDLDVIREGQRDATRALEETQVSLDERRQLDGSSLQALQNAVDAVSLAVDAHKAEGERARAATSRLRSQVQALDDEVGALKAAAAEARHEVRQLHSAFAALLEDALRHEAVLAALFGEEVLEEMSEQTPGPLPLSYEQIRVALQDAASGLQEQALGWDELAARVTALEQASEPPRP
modifications: biotin (BirA tag for specific biotinylation)

- binding (MMRN2^133-486 (human)): binds
B2: mouse CD248 extracellular domain with Fc tag (mCD248-ECD-Fc) (Fc fusion, UniProt Q91V98 18-695)
chain: QVPWTPEPRAACGPSSCYALFPRRRTFLEAWRACRELGGNLATPRTPEEAQRVDSLVGVGPANGLLWIGLQRQARQCQPQRPLRGFIWTTGDQDTAFTNWAQPATEGPCPAQRCAALEASGEHRWLEGSCTLAVDGYLCQFGFEGACPALPLEVGQAGPAVYTTPFNLVSSEFEWLPFGSVAAVQCQAGRGASLLCVKQPSGGVGWSQTGPLCPGTGCGPDNGGCEHECVEEVDGAVSCRCSEGFRLAADGHSCEDPCAQAPCEQQCEPGGPQGYSCHCRLGFRPAEDDPHRCVDTDECQIAGVCQQMCVNYVGGFECYCSEGHELEADGISCSPAGAMGAQASQDLRDELLDDGEEGEDEEEPWEDFDGTWTEEQGILWLAPTHPPDFGLPYRPNFPQDGEPQRLHLEPTWPPPLSAPRGPYHSSVVSATRPMVISATRPTLPSAHKTSVISATRPPLSPVHPPAMAPATPPAVFSEHQIPKIKANYPDLPFGHKPGITSATHPARSPPYQPPIISTNYPQVFPPHQAPMSPDTHTITYLPPVPPHLDPGDTTSKAHQHPLLPDAPGIRTQAPQLSVSALQPPLPTNSRSSVHETPVPAANQPPAFPSSPLPPQRPTNQTSSISPTHSYSRAPLVPREGVPSPKSVPQLPSVPSTAAPTALAESGLAGQSQRDDRWL
